Results taken from US5939419A, “2-benzyl-polycyclic guanine derivatives and process for preparing them” (Schering-Plough Corporation, priority 1995, dated 1999).
The name of at least one read-out is uncertain.

Tested on: spontaneously hypertensive rats (SHR)
Assay: Antihypertensive activity in conscious spontaneously hypertensive rats (SHR), oral
Assay type: in vivo, rat
Text: The present compounds are useful in inhibiting the phosphodiesterase enzymes. These phosphodiesterase enzymes are known to hydrolyze cGMP in smooth muscle. High levels of cGMP are associated with the relaxation of vascular smooth muscle, with a consequent subsequent reduction in blood pressure. Thus, it is believed that by inhibiting these phosphodiesterase enzymes, cGMP levels in muscle will be either maintained or increased, with a subsequent reduction in blood pressure. In vivo antihypertensive activity is determined orally in spontaneously hypertensive rats (SHR).
Antihypertensive activity in rats
The ability of the compounds of the present invention to lower blood pressure can be assessed in vivo in conscious spontaneously hypertensive rats (SHR). SHR males are purchased from Taconic Farms, Germantown, N.Y. and are approximately 16-18 weeks old when anesthetized with ether. The caudal (ventral tail) artery is cannulated with polyethylene tubing (PE50) and blood pressure and heart rate are recorded as described by Baum, T. et. al, J. Cardiovasc. Pharmacol. Vol 5, pp. 655-667, (1983). Rats are placed into plastic cylindrical cages where they rapidly recover consciousness. Blood pressure and heart rate are allowed to stabilize for approximately 90 minutes prior to compound administration. Compounds are administered orally as solutions or suspensions in 0.4% aqueous methylcellulose vehicle via a feeding needle. The compound or 0.4% aqueous methylcellulose vehicle are given in a volume of 4 ml/kg to SHRs that had been fasted overnight. Activity is expressed as the fall in mean blood pressure (MBP) in millimeters of mercury (mm Hg). Compound-induced changes are compared with the changes in an appropriate placebo group. "NT" means that the compound was not tested in that assay.

| SMILES | SHR Antihypertensive Fall in MBP (dose 10 mpk) [mmHg] | SHR Antihypertensive Fall in MBP (dose 3 mpk) [mmHg] |
| --- | --- | --- |
| CN1C(=O)c2[nH]c(Cc3ccc(O)cc3)nc2N2C1=N[C@@H]1CCC[C@@H]12 [Example 3] | 21 |  |
| CN1C(=O)c2[nH]c(Cc3ccccc3)nc2N2CC(C)(C)N=C12 [Example 9] | 47 |  |
| CN1C(=O)c2[nH]c(Cc3ccc4ccccc4c3)nc2N2C1=N[C@@H]1CCC[C@@H]12 [Example 6] |  | 19 |
| COc1ccc(-c2ccc(Cc3nc4c([nH]3)C(=O)N(C)C3=N[C@@H]5CCC[C@@H]5N34)cc2)cc1 [Example 5] |  | 33 |
| CN1C(=O)c2[nH]c(Cc3ccc(-n4cccc4)cc3)nc2N2C1=N[C@@H]1CCC[C@@H]12 [Example 4] |  | 32 |
| CN1C(=O)c2[nH]c(Cc3ccc(N(C)C)cc3)nc2N2C1=N[C@@H]1CCC[C@@H]12 [Example 2] | 40 |  |
| CN1C(=O)c2[nH]cnc2N2C1=N[C@@H]1CCC[C@@H]12 (relative stereo) [Compound B, cis-5,6a,7,8,9,9a-hexahydro-5-methylcyclopenta-[4,5]imidazo[2,1-b]-purin-4(3H)-one, reference compound] | 8 |  |
| CC(C)[C@@H]1CN2C(=N1)N(C)C(=O)c1[nH]c(Cc3ccccc3)nc12 [Example 10] | 39 |  |
| COc1cc(Cc2nc3c([nH]2)C(=O)N(C)C2=N[C@@H]4CCC[C@@H]4N23)cc(OC)c1OC [Example 2A] |  | 19 |
| CN1C(=O)c2[nH]c(Cc3ccc4c(c3)OCO4)nc2N2C1=N[C@@H]1CCC[C@@H]12 [Example 3G] |  | 28 |
| CN1C(=O)c2[nH]c(Cc3ccc(-c4ccccc4)cc3)nc2N2C1=N[C@@H]1CCC[C@@H]12 [Example 3H] |  | 27 |
| CN1C(=O)c2[nH]c(Cc3ccc(OC(F)(F)F)cc3)nc2N2C1=N[C@@H]1CCC[C@@H]12 [Example 3B] |  | 28 |
| CN1C(=O)c2[nH]c(Cc3ccccc3)nc2N2CC3(CCCC3)N=C12 [Example 8] | 40 |  |
| CN1C(=O)c2[nH]c(Cc3ccc4c(c3)OCO4)nc2N2C1=NC13CCCC1CCC23 (centres unmarked) [Example 11] | 59 |  |
| CN1C(=O)c2[nH]c(Cc3ccc(C(F)(F)F)cc3)nc2N2C1=N[C@@H]1COC[C@@H]12 [Example 12] |  | 20 |
| CN1C(=O)c2[nH]c(Cc3ccc(C(F)(F)F)cc3)nc2N2C1=N[C@@H]1CCC[C@@H]12 [Example 1C] | 40 |  |
| CN1C(=O)c2[nH]c(Cc3ccc(F)cc3)nc2N2C1=N[C@@H]1CCC[C@@H]12 [Example 1A] | 49 |  |
| CN1C(=O)c2[nH]c(Cc3ccc(N4CCOCC4)cc3)nc2N2C1=N[C@@H]1CCC[C@@H]12 [Example 3C] |  | 23 |
| CN1C(=O)c2[nH]c(Cc3ccc(Cl)cc3)nc2N2C1=N[C@@H]1CCC[C@@H]12 [Example 7] |  | 27 |
| COc1ccc(Cc2nc3c([nH]2)C(=O)N(C)C2=N[C@@H]4CCC[C@@H]4N23)cc1 [Example 1B] | 61 |  |
| CN1C(=O)c2[nH]c(Cc3ccccc3)nc2N2C1=N[C@@H]1CCC[C@@H]12 [Example 1] | 47 |  |
| CN1C(=O)c2[nH]c(Cc3ccc(N4CCCC4)cc3)nc2N2C1=N[C@@H]1CCC[C@@H]12 [Example 3D] |  | 28 |
| CN1C(=O)c2[nH]c(Cc3cccc(C(F)(F)F)c3)nc2N2C1=N[C@@H]1CCC[C@@H]12 [Example 3F] | 34 |  |
| COc1ccc(Cc2nc3c([nH]2)C(=O)N(C)C2=N[C@@H]4CCC[C@@H]4N23)cc1OC [Example 2B] |  | 30 |
| Cc1ccc(Cc2nc3c([nH]2)C(=O)N(C)C2=N[C@@H]4CCC[C@@H]4N23)cc1 [Example 3A] | 42 |  |
| COc1cccc(Cc2nc3c([nH]2)C(=O)N(C)C2=N[C@@H]4CCC[C@@H]4N23)c1 [Example 3E] | 29 |  |
